# Reference: the antibiotic and cytotoxicity screens of Wong et al. (2023)
# The other results are listed elsewhere or left out.
# Key:
# HSkMC = human skeletal muscle cells; assay: cytotoxicity call (relative viability < 0.9); conditions: 10 µM
# HepG2 = assay: cytotoxicity call (relative viability < 0.9); conditions: 10 µM
# S. aureus RN4220 = assay: growth inhibition call (relative growth <= 0.2); conditions: 50 µM
Compound,cytotoxicity call (HSkMC),cytotoxicity call (HepG2),growth inhibition call (S. aureus RN4220)
Cc1n[nH]c(N/N=C/c2ccccn2)nc1=O,active,active,inactive
Cc1cc2n(c(=O)c1C(N)=O)CCO2,inactive,inactive,inactive
CCC(=O)N(C)C[C@H]1Oc2ncc(C#C[C@H](C)O)cc2C(=O)N([C@@H](C)CO)C[C@H]1C,inactive,inactive,inactive
NCCNC1=NS(=O)(=O)c2ccccc21,inactive,inactive,inactive
C[C@@H]1CN([C@H](C)CO)C(=O)Cc2cc(NS(C)(=O)=O)ccc2O[C@H]1CN(C)S(=O)(=O)c1ccc(F)cc1,inactive,inactive,inactive
CN1CCc2nc(N)sc2C1,inactive,inactive,inactive
COc1ccc(S(=O)(=O)Nc2ccc3c(c2)C(=O)N([C@H](C)CO)C[C@@H](C)[C@@H](CN(C)CC2CCCCC2)OCCCC[C@H](C)O3)cc1,inactive,inactive,inactive
C/C=C/c1ccc2c(c1)O[C@@H](CN(C)C(=O)c1ccc3c(c1)OCO3)[C@@H](C)CN([C@H](C)CO)S2(=O)=O,inactive,inactive,inactive
O=C(CCCCCNC(=O)OCc1ccc(CO[C@H]2C[C@@H](c3coc4ccccc4c3=O)C=C(C(=O)N3CCN(Cc4ccccc4)CC3)O2)cc1)NO,inactive,inactive,inactive
CC(C)(C)C(=O)c1cccs1,inactive,inactive,inactive
C[C@@H]1CN([C@H](C)CO)C(=O)c2cccc(NC(=O)Nc3ccccc3)c2O[C@H]1CN(C)Cc1ccc(C(=O)Nc2ccccc2N)cc1,inactive,inactive,inactive
O=C(NO)c1cccc(C(=O)N/N=C/[C@@H](O)[C@@H](O)[C@H](O)[C@H](O)CO)c1,inactive,inactive,inactive
C[C@@H]1CN([C@H](C)CO)C(=O)Cc2cc(NS(=O)(=O)c3cccs3)ccc2O[C@@H]1CN(C)S(=O)(=O)c1cn(C)cn1,inactive,inactive,inactive
O=C(O)c1cc(=O)c2cccc(O)c2[nH]1,inactive,inactive,inactive
O=C(O)c1ccc(O)c(C(=O)O)c1,inactive,inactive,inactive
C[C@@H]1CN([C@H](C)CO)C(=O)c2cccc(NC(=O)c3ccc(-c4nccs4)cc3)c2O[C@@H]1CN(C)C(=O)Nc1ccc(F)cc1,inactive,inactive,inactive
N[C@@H](CSCc1ccccc1Cl)C(=O)O,inactive,inactive,inactive
NCc1nnc2n1CCC2,inactive,inactive,inactive
O=C(C[C@@H]1C=C[C@H](NS(=O)(=O)c2ccccc2)[C@@H](CO)O1)NCc1ccncn1,inactive,inactive,inactive
COc1cccc(-c2ccc3c(c2)O[C@@H](CN(C)Cc2cncnc2)[C@@H](C)CN([C@H](C)CO)S3(=O)=O)c1,inactive,inactive,inactive
O=C(C[C@H]1C[C@@H]2c3cc(NC(=O)c4ccc5c(c4)OCO5)ccc3O[C@@H]2[C@H](CO)O1)NCc1ccccn1,inactive,inactive,inactive
O=C(N[C@@H]1CC[C@@H](CCNS(=O)(=O)c2ccc(F)cc2)O[C@H]1CO)C1CC1,inactive,inactive,inactive
Cc1noc(C)c1S(=O)(=O)Nc1ccc2c(c1)C(=O)N([C@@H](C)CO)C[C@@H](C)[C@H](CN(C)C(=O)NC1CCCCC1)O2,inactive,inactive,inactive
C[C@@H]1CN([C@@H](C)CO)C(=O)c2cc(NC(=O)Nc3ccc(C(F)(F)F)cc3)ccc2O[C@@H]1CN(C)S(=O)(=O)c1ccc(Cl)cc1,active,active,inactive
COc1ccc(NC(=O)N(C)C[C@H]2OCCCC[C@@H](C)Oc3ccc(NS(=O)(=O)c4ccc(Cl)cc4)cc3C(=O)N([C@@H](C)CO)C[C@H]2C)cc1,inactive,inactive,inactive
C[C@H]1CN([C@@H](C)CO)C(=O)Cc2cc(NC(=O)Cn3cnnn3)ccc2O[C@H]1CN(C)Cc1ccc(C(=O)Nc2ccccc2N)cc1,inactive,inactive,inactive
COc1ccc2c3c(n(c2c1)C)[C@@H](CO)N(C[C@]13CN(C1)C(=O)Cc1ccccc1)C(=O)c1ccccn1,inactive,inactive,inactive
C[C@@H]1CN([C@@H](C)CO)C(=O)Cc2cc(NC(=O)Nc3ccc4c(c3)OCO4)ccc2O[C@H]1CN(C)S(C)(=O)=O,inactive,inactive,inactive
CC1(C)[C@H]2C[C@@H](O[C@H]3O[C@@H](CO)[C@@H](O)[C@@H](O)[C@@H]3O)[C@@]1(C)C[C@@H]2O,inactive,inactive,inactive
